The BET-seq Pho4 binding data (Le et al. 2018)
The list shows a part of the results. These are noisy estimates, calculated here from bound and input reads.

target: T1, Pho4 (S. cerevisiae) (UniProt P07270); experiment: relative binding free energy (BET-seq); higher = weaker binding; settings: reference: library average
T1 sequence: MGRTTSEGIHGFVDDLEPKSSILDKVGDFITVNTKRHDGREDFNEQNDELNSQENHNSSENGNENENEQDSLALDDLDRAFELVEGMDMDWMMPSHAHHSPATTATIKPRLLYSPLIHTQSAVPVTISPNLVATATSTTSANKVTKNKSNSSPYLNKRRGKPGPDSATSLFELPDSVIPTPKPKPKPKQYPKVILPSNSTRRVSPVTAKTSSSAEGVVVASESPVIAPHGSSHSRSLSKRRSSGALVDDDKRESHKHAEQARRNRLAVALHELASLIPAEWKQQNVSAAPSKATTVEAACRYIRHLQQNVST

| Sequence | relative binding free energy |
| --- | --- |
| TGTCCCACGTGTTAGG | -0.03 kcal/mol |
| AAGTTCACGTGGATTA | 0.19 kcal/mol |
| TTGTACACGTGGCTGT | -0.03 kcal/mol |
| CGGGCCACGTGGGGAT | -0.13 kcal/mol |
| GGGGGCACGTGCGGCA | -0.28 kcal/mol |
| AGGAACACGTGGGTAG | -0.06 kcal/mol |
| TGGCGCACGTGTGAGT | -0.04 kcal/mol |
| TTTGACACGTGGGCAG | -0.18 kcal/mol |
| TCGATCACGTGGTGTA | 0.01 kcal/mol |
| TAAGTCACGTGGGTAA | 0.1 kcal/mol |
| GTTAGCACGTGTGATG | 0.07 kcal/mol |
| GAGTGCACGTGGGTGC | -0.19 kcal/mol |
| AAGTGCACGTGTTGCT | -0.02 kcal/mol |
| GTGGCCACGTGAGTGT | 0.15 kcal/mol |
| GGACACACGTGATGGT | 0.29 kcal/mol |
| GGGCACACGTGGGTAT | -0.08 kcal/mol |
| AGGGGCACGTGGATCT | -0.1 kcal/mol |
| TTTCGCACGTGGGCTG | -0.34 kcal/mol |
| GGTACCACGTGTGAGT | -0.04 kcal/mol |
| ATGGCCACGTGTTGGA | -0.09 kcal/mol |
| CGTGGCACGTGGATAT | -0.18 kcal/mol |
| TTGTTCACGTGTATTA | 0.23 kcal/mol |
| GGCGTCACGTGGTGGA | 0.13 kcal/mol |

| Sequence | relative binding free energy |
| --- | --- |
| TAGATCACGTGGATAT | 0.2 kcal/mol |
| TAGGACACGTGGTTGG | -0.03 kcal/mol |
| TAGTCCACGTGTGAAG | 0.15 kcal/mol |
| TTGGGCACGTGGAAGA | -0.07 kcal/mol |
| GGCTACACGTGAGTAG | 0.29 kcal/mol |
| TAGCTCACGTGTTGTA | 0.31 kcal/mol |
| GTGAACACGTGAGGAT | 0.34 kcal/mol |
| TGTTGCACGTGCCGGT | -0.16 kcal/mol |
| ATCTTCACGTGGGTTT | 0.24 kcal/mol |
| TTTGTCACGTGTGGTG | 0.24 kcal/mol |
| GTGTTCACGTGATGTC | 0.31 kcal/mol |
| TTTACCACGTGTGTTG | 0.05 kcal/mol |
| TGAATCACGTGGCGTA | 0.09 kcal/mol |
| AGGTTCACGTGATTGT | 0.43 kcal/mol |
| ATGTACACGTGCGTGG | 0.07 kcal/mol |
| AGATACACGTGGGTCG | -0.1 kcal/mol |
| TGCTTCACGTGGAGCG | 0.25 kcal/mol |
| GGTAGCACGTGTGGCG | 0.04 kcal/mol |
| GTACTCACGTGGATTG | 0.35 kcal/mol |
| CGTATCACGTGATGGG | 0.23 kcal/mol |
| ATGGGCACGTGCAGTG | -0.14 kcal/mol |
| TTATACACGTGGGGTT | -0.18 kcal/mol |
| AGTGCCACGTGTAGGA | -0.09 kcal/mol |

| Sequence | relative binding free energy |
| --- | --- |
| TTTTTCACGTGTCAAG | 0.35 kcal/mol |
| TCGTTCACGTGAGAGG | 0.47 kcal/mol |
| TATCACACGTGTAGGG | 0.16 kcal/mol |
| TGCTTCACGTGGTAGC | 0.26 kcal/mol |
| GGGCTCACGTGATTTT | 0.45 kcal/mol |
| GTGTGCACGTGGCCGT | -0.06 kcal/mol |
| AGGGACACGTGAACGG | 0.25 kcal/mol |
| TAAGACACGTGGATGT | 0.04 kcal/mol |
| CAGGACACGTGGGCGG | -0.1 kcal/mol |
| GGTTTCACGTGGGTTG | 0.28 kcal/mol |
| GTTAACACGTGGGAGG | -0.15 kcal/mol |
| TCTTGCACGTGGTTTA | -0.01 kcal/mol |
| GCAAGCACGTGGAGGG | -0.11 kcal/mol |
| TAGAGCACGTGCGAGG | -0.2 kcal/mol |
| GAGGGCACGTGTGGGT | -0.01 kcal/mol |
| CTTAACACGTGTTGTA | -0.19 kcal/mol |
| ATTGTCACGTGTTGAT | 0.08 kcal/mol |
| TTTAACACGTGGGGAA | -0.22 kcal/mol |
| AGGATCACGTGCGAGG | 0.32 kcal/mol |
| AAGTGCACGTGGGCTA | -0.28 kcal/mol |
| CATTGCACGTGTAAGT | 0.17 kcal/mol |
| TGGATCACGTGCTAGG | 0.13 kcal/mol |
| CTACGCACGTGTTGTG | -0.2 kcal/mol |

| Sequence | relative binding free energy |
| --- | --- |
| CGAGGCACGTGAGTTT | 0.17 kcal/mol |
| TTTGGCACGTGTAGCG | 0.08 kcal/mol |
| TATTTCACGTGACTTG | 0.42 kcal/mol |
| GTGTGCACGTGTGTCT | 0.09 kcal/mol |
| CGGGTCACGTGGTCGC | 0.06 kcal/mol |
| TGGCCCACGTGGATGT | -0.05 kcal/mol |
| AATGACACGTGTAGTT | -0.04 kcal/mol |
| AAGGTCACGTGGTATG | 0.05 kcal/mol |
| CGCGTCACGTGGTTGG | 0 kcal/mol |
| CTTTACACGTGAGAGT | 0.53 kcal/mol |
| GTTTGCACGTGGGGGG | -0.11 kcal/mol |
| GGAGTCACGTGTCGAG | 0.06 kcal/mol |
| GTTGACACGTGTGGGC | 0.17 kcal/mol |
| GTCGTCACGTGTATTT | 0.14 kcal/mol |
| AGTATCACGTGAAGGT | 0.24 kcal/mol |
| ATTTGCACGTGGATTG | 0.06 kcal/mol |
| GTATGCACGTGTCAGG | -0.05 kcal/mol |
| AGAGGCACGTGGGGGC | -0.35 kcal/mol |
| GGTGGCACGTGGTGCT | -0.12 kcal/mol |
| TGTCTCACGTGGTGTA | 0.09 kcal/mol |
| ATTTACACGTGGAAAG | 0.32 kcal/mol |
| TGGATCACGTGTTCGG | 0.25 kcal/mol |
| CTTGCCACGTGGTGGG | -0.08 kcal/mol |

| Sequence | relative binding free energy |
| --- | --- |
| GTGTTCACGTGAGAGC | 0.35 kcal/mol |
| CTGGGCACGTGAGGGA | 0.16 kcal/mol |
| AGCTTCACGTGGGGCG | 0.23 kcal/mol |
| TTAAGCACGTGCTTGT | -0.16 kcal/mol |
| ATTTACACGTGGCGTT | 0.11 kcal/mol |
| TGAGGCACGTGTGGGC | -0.05 kcal/mol |
| GGTGGCACGTGCCGGT | -0.17 kcal/mol |
| CAGTGCACGTGGAAGG | 0.08 kcal/mol |
| TGTAACACGTGGAGTA | -0.12 kcal/mol |
| TTTAGCACGTGGTTCG | -0.16 kcal/mol |
| AGGGCCACGTGTACGG | -0.11 kcal/mol |
| TGCAGCACGTGATGTT | -0.03 kcal/mol |
| CAGGGCACGTGGAGTT | 0 kcal/mol |
| AAGGGCACGTGATACG | 0.06 kcal/mol |
| GTGAGCACGTGGAATT | -0.07 kcal/mol |
| GAGGGCACGTGCCGGG | -0.11 kcal/mol |
| AGAGGCACGTGGCCGG | -0.25 kcal/mol |
| TGTTTCACGTGTGTGA | 0.34 kcal/mol |
| AACTTCACGTGGGGTC | 0.3 kcal/mol |
| GCTTTCACGTGTTGTA | 0.27 kcal/mol |
| TATTGCACGTGGAGCG | -0.06 kcal/mol |
| GTGAGCACGTGCGTGG | -0.06 kcal/mol |
| CATAGCACGTGTTTTG | -0.17 kcal/mol |
